# Assay results reported in the supplement of paper PMC4604168 (melanoma cell lines).
# This is one part of the list. Most values come without repeats; read them as rough.
# Assays:
# Test in all cases: cell count relative to DMSO control; melanoma cells; higher = more viable cells
# Conditions in all cases: library dose: low library concentration; 72 h
# WM115 = tested on: WM115
# WM1716 = tested on: WM1716
# WM1745 = tested on: WM1745
# WM3526 = tested on: WM3526
# WM3619 = tested on: WM3619
# WM451Lu = tested on: WM451Lu
# 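Further: cell number obtained by counting DAPI-stained nuclei in high-throughput microscope images with image analysis software, screen run in 1,536-well plates.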
Compound,cell count (WM115) [%],cell count (WM1716) [%],cell count (WM1745) [%],cell count (WM3526) [%],cell count (WM3619) [%],cell count (WM451Lu) [%]
"Cc1cc(N2CCOCC2)cc2[nH]c(-c3c(NC[C@@H](O)c4cccc(Cl)c4)cc[nH]c3=O)nc12 + COC(=O)c1sccc1S(=O)(=O)Nc1ccc(Nc2ccccc2)cc1OC [GSK0660] (first compound 0.2 µM, partner dose 1 µM)",98.7,109,89.2,110,84.5,92.7
"O=C(O)[C@@H]1[O][Sb](=[O])([O][Sb]2(=[O])[O][C@H]([C@H](O)CO)[C@H](O)[C@H](C(=O)O)[O]2)[O][C@H]([C@H](O)CO)[C@@H]1O (some centres not stated) [stibogluconate] + CO[C@H]1C[C@@H]2CC[C@@H](C)[C@@](O)(O2)C(=O)C(=O)N2CCCC[C@H]2C(=O)O[C@H]([C@H](C)C[C@@H]2CC[C@@H](OCCO)[C@H](OC)C2)CC(=O)[C@H](C)/C=C(\C)[C@@H](O)[C@@H](OC)C(=O)[C@H](C)C[C@H](C)/C=C/C=C/C=C/1C [everolimus] (first compound 2 µM, partner dose 0.02 µM)",84.2,78.4,96.9,70.7,94.2,78.7
"Cc1cc(N2CCOCC2)cc2[nH]c(-c3c(NC[C@@H](O)c4cccc(Cl)c4)cc[nH]c3=O)nc12 + Oc1cc(-c2nc(-c3ccccc3)[nH]c2-c2ccncc2)ccc1Cl [L779450] (first compound 0.2 µM, partner dose 0.2 µM)",78.6,121,61.5,61.1,80,100
"O=C(Nc1ccccc1)c1cc([N+](=O)[O-])ccc1Cl + O=C1NC(=O)/C(=C/c2ccc(-c3ccc(F)cc3O)o2)S1 [AS252424] (first compound 2 µM, partner dose 1 µM)",110,104,94.4,103,92,111
"Cn1nnc2c(C(N)=O)ncn2c1=O [temozolomide] + CO[C@@H]1[C@H](N(C)C(=O)c2ccccc2)C[C@H]2O[C@]1(C)n1c3ccccc3c3c4c(c5c6ccccc6n2c5c31)C(=O)NC4 [Midostaurin] (first compound 2 µM, partner dose 0.08 µM)",78.7,80.1,102,83.1,85.9,85
"O=C(O)c1ccc2c(c1)nc(Nc1cccc(Cl)c1)c1ccncc12 + COc1cc(Nc2ncc(F)c(Nc3ccc4c(n3)NC(=O)C(C)(C)O4)n2)cc(OC)c1OC [Tamatinib] (first compound 0.4 µM, partner dose 0.4 µM)",94.2,89.1,70.1,77.9,80.5,94.3
"O=C(O)c1ccc2c(c1)nc(Nc1cccc(Cl)c1)c1ccncc12 + Nc1ccn([C@@H]2O[C@H](CO)[C@@H](O)C2(F)F)c(=O)n1 [gemcitabine] (first compound 0.4 µM, partner dose 0.0004 µM)",108,85.2,93.1,81.2,63.1,98.1
"O=C(Nc1cc(C(F)(F)F)cc(C(F)(F)F)c1)c1cc(Cl)ccc1O + NCC(=O)Nc1ccc(-n2nc(C(F)(F)F)cc2-c2ccc3c(ccc4ccccc43)c2)cc1 [OSU03012] (first compound 0.016 µM, partner dose 1 µM)",93.9,95.9,115,49.2,107,56.3
"O=C(O)[C@@H]1[O][Sb](=[O])([O][Sb]2(=[O])[O][C@H]([C@H](O)CO)[C@H](O)[C@H](C(=O)O)[O]2)[O][C@H]([C@H](O)CO)[C@@H]1O (some centres not stated) [stibogluconate] + CO[C@@H]1[C@H](N(C)C(=O)c2ccccc2)C[C@H]2O[C@]1(C)n1c3ccccc3c3c4c(c5c6ccccc6n2c5c31)C(=O)NC4 [Midostaurin] (first compound 2 µM, partner dose 0.08 µM)",78.7,75.2,88.3,106,109,110
"O=C(Nc1cc(C(F)(F)F)cc(C(F)(F)F)c1)c1cc(Cl)ccc1O + COc1ccc(Cl)c(Nc2nc3ccccc3nc2NS(=O)(=O)c2cccc(NC(=O)C(C)(C)N)c2)c1 [XL147] (first compound 0.016 µM, partner dose 0.8 µM)",108,91.8,97,91.9,108,102
"O=C(Nc1ccccc1)c1cc([N+](=O)[O-])ccc1Cl + Cc1cc([N+](=O)[O-])ccc1NS(=O)(=O)c1cc(Cl)ccc1Cl [FH535] (first compound 2 µM, partner dose 1 µM)",94,101,82.6,81.8,96.3,107
"O=C(Nc1cc(C(F)(F)F)cc(C(F)(F)F)c1)c1cc(Cl)ccc1O + COc1cc2c(Oc3ccc4[nH]c(C)cc4c3F)ncnc2cc1OCCCN1CCCC1 [cediranib] (first compound 0.016 µM, partner dose 0.4 µM)",92.7,102,90.7,80.1,86.5,74.2
"O=C(O)[C@@H]1[O][Sb](=[O])([O][Sb]2(=[O])[O][C@H]([C@H](O)CO)[C@H](O)[C@H](C(=O)O)[O]2)[O][C@H]([C@H](O)CO)[C@@H]1O (some centres not stated) [stibogluconate] + CNC(=O)c1cc(Oc2ccc(NC(=O)Nc3ccc(Cl)c(C(F)(F)F)c3)cc2)ccn1 [sorafenib] (first compound 2 µM, partner dose 0.4 µM)",98.8,89.8,93.3,84.6,94.5,98.1
"O=C(Nc1cc(C(F)(F)F)cc(C(F)(F)F)c1)c1cc(Cl)ccc1O + C[C@]1(O)C[C@@H](c2nc(-c3ccc4ccc(-c5ccccc5)nc4c3)c3c(N)nccn32)C1 [OSI906] (first compound 0.016 µM, partner dose 0.4 µM)",88.6,102,77.4,104,97.9,99.6
"O=C(Nc1cc(C(F)(F)F)cc(C(F)(F)F)c1)c1cc(Cl)ccc1O + COCC[n+]1c2c(n(Cc3cnccn3)c1C)C(=O)c1ccccc1C2=O [YM155] (first compound 0.016 µM, partner dose 0.0004 µM)",108,112,101,101,93.9,80.4
"O=C(Nc1cc(C(F)(F)F)cc(C(F)(F)F)c1)c1cc(Cl)ccc1O + CC(C)(C)c1cnc(CSc2cnc(NC(=O)C3CCNCC3)s2)o1 [SNS-032] (first compound 0.016 µM, partner dose 0.01 µM)",104,97.7,89.5,132,97.6,106
"O=C(O)c1ccc2c(c1)nc(Nc1cccc(Cl)c1)c1ccncc12 + OCc1c[nH]c2ccccc12 [Indole-3-carbinol] (first compound 0.4 µM, partner dose 0.8 µM)",98,87.5,106,83,90.9,130
"Cc1cc(N2CCOCC2)cc2[nH]c(-c3c(NC[C@@H](O)c4cccc(Cl)c4)cc[nH]c3=O)nc12 + CN(NC(=O)CC(=O)NN(C)C(=S)c1ccccc1)C(=S)c1ccccc1 [STA4783] (first compound 0.2 µM, partner dose 0.006 µM)",96.9,84.2,23.4,93.6,55.4,115
"O=C(O)[C@@H]1[O][Sb](=[O])([O][Sb]2(=[O])[O][C@H]([C@H](O)CO)[C@H](O)[C@H](C(=O)O)[O]2)[O][C@H]([C@H](O)CO)[C@@H]1O (some centres not stated) [stibogluconate] + COCC[n+]1c2c(n(Cc3cnccn3)c1C)C(=O)c1ccccc1C2=O [YM155] (first compound 2 µM, partner dose 0.0004 µM)",112,89.5,102,64.9,102,86.5
"O=C(O)c1ccc2c(c1)nc(Nc1cccc(Cl)c1)c1ccncc12 + NC(=O)Nc1cc(-c2cccc(F)c2)sc1C(=O)N[C@H]1CCCNC1 [AZD7762] (first compound 0.4 µM, partner dose 0.02 µM)",116,84.1,106,69.4,112,83.3
"Cc1cc(N2CCOCC2)cc2[nH]c(-c3c(NC[C@@H](O)c4cccc(Cl)c4)cc[nH]c3=O)nc12 + c1cc(-c2cnn3cc(-c4ccc(OCCN5CCCCC5)cc4)cnc23)ccn1 [Dorsomorphin] (first compound 0.2 µM, partner dose 0.4 µM)",106,101,63.6,85.8,73.9,102
"O=C(O)[C@@H]1[O][Sb](=[O])([O][Sb]2(=[O])[O][C@H]([C@H](O)CO)[C@H](O)[C@H](C(=O)O)[O]2)[O][C@H]([C@H](O)CO)[C@@H]1O (some centres not stated) [stibogluconate] + COC(=O)c1sccc1S(=O)(=O)Nc1ccc(Nc2ccccc2)cc1OC [GSK0660] (first compound 2 µM, partner dose 1 µM)",113,108,104,110,129,117
